Tests used:
[1] = tested on: HCV replicon GT1b-NS5B-S282T; experiment: microbe, parasite or virus in culture; assay type: cell-based; settings: Hepatitis C virus, read-out: EC50 (μM) GT1b-NS5B-S282T
[2] = tested on: HCV replicon GT1b-NS5B-S96T; experiment: microbe, parasite or virus in culture; assay type: cell-based; settings: Hepatitis C virus, read-out: EC50 (μM) GT1b-NS5B-S96T

For CC(C)OC(=O)[C@H](C)N[P@](=O)(OC[C@H]1O[C@@H](n2ccc(=O)[nH]c2=S)[C@](C)(O)C1O)Oc1ccccc1 (some centres unmarked) [ENUC-02023-1], the EC50 [1] was ~7.26 µM and the EC50 [2] was 0.0787 µM.
